In PubChem BioAssay AID1461 (National Center for Advancing Translational Sciences (NCATS), 2008):
The campaign covered roughly 220,000 compounds. About 2,300 (1%) were called active. The inconclusive results got no clear call from the source; some entries with a clear call stand among them for comparison. The call rests on the fitted dose curve; in most records, active means well fitted inhibition curve with a large enough effect; inconclusive means small, poorly fitted or top-dose-only effect, or effect the other way; inactive means no such curve, though single readings can be large or run the other way. No potency is given beside an inconclusive call; the fits are too rough.

molecular target: Neuropeptide S receptor (Homo sapiens) (UniProt Q6W5P4); experiment: qHTS Assay for Antagonists of the Neuropeptide S Receptor: cAMP Signal Transduction; details: CHO-NPSR cells, cAMP TR-FRET, antagonist mode; activity change, negative = inhibition: at 38.3 µM (top of the series) unless noted; further: nearly all actives have a fitted effect of over 50% in size
UniProt Q6W5P4, sequence (Q6W5P4 whole entry, looked up): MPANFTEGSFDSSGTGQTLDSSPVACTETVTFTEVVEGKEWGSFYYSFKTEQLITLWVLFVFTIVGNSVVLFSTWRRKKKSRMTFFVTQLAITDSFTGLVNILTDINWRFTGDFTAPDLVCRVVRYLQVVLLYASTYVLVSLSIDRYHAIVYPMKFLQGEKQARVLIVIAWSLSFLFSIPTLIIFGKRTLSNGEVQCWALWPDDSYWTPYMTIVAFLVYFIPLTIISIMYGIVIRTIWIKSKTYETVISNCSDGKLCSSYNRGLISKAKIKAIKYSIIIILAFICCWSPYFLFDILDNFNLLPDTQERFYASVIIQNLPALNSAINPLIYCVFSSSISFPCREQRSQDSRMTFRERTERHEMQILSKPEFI
On the % scale 0 is the no-effect control and ±100 the full control effect; potency means the concentration at half of the fitted maximal effect; tags describe the fitted curve by direction and shape.

Structure (SMILES) | Potency | activity change, negative = inhibition
O=c1[nH]c(=O)n([C@H]2C[C@H](O)[C@@H](CO)O2)cc1/C=C/Br | inconclusive [inhibitor, single point] | 
COc1ccc(OC)c(N=Cc2c(O)n(Cc3ccccc3)c(=S)[nH]c2=O)c1 | inconclusive [activator, single point] | 
Cc1ccc(N2C(=O)NC(=O)/C(=C\c3cc(C)n(-c4sc5c(c4C#N)CCCC5)c3C)C2=O)cc1 |  | inactive: -11.1%
O=C1NC(=O)C(=Cc2ccc(Oc3ccc([N+](=O)[O-])cc3)cc2)C(=O)N1 |  | inactive: -5.05%
OCc1cnc[nH]1 | inconclusive [inhibitor, single point] | 
Cc1ccc2c(c1)CNc1ccccc1O2 |  | inactive: 4.83% [at 46.1 µM]
CCOC(=O)c1c(C)n(Cc2ccccc2)c2ccc(OCC(O)Cn3nc(C)cc3C)cc12 (centres undefined) | inconclusive [inhibitor, partial curve] | 
CC(C)Oc1cc(-n2c(=S)[nH]c3ccccc3c2=O)c(Cl)cc1Cl | inconclusive [inhibitor, partial curve] | 
Clc1ccc(CSC(Cn2ccnc2)c2ccc(Cl)cc2Cl)cc1 (centres undefined) | inconclusive [inhibitor, single point] | 
CC(C)[C@H](CN(N=O)[C@@H](Cc1ccccc1)CN(C)N=O)N(CCc1ccccc1)N=O | inconclusive [activator, partial curve] | 
O=C(N/N=C/c1c(O)n(Cc2ccco2)c(=O)[nH]c1=O)c1ccccc1O |  | inactive: -4.59%
CN1CCN(c2ccc([N+](=O)[O-])c3no[n+]([O-])c23)CC1 | active: 10 µM | 
Cc1ccc(-c2nc3ccccc3c(=O)n2-c2nccs2)cc1 | inconclusive [inhibitor, single point] | 
CCOP(=O)(OCC)c1nc(-c2cccc3ccccc23)oc1N1CCCCC1 | inconclusive [inhibitor, partial curve, poor fit] | 
CCC(C)/C=C(C)/C=C/C1=CC2=C(Cl)C(=O)C(C)(OC(C)=O)C(=O)C2=CO1 (centres undefined) | inconclusive [activator, partial curve] | 
Cn1cc(CCC(=O)N2CCC3(CC2)OCCO3)c2ccccc21 | inconclusive [inhibitor, single point] | 
CCOC(=O)C1=C(NC(=S)NC(=O)c2ccccc2)c2ccccc2CC12CCCC2 | inconclusive [inhibitor, single point] | 
CC(=O)N1CCN(c2ccc(OC[C@H]3CO[C@](Cn4ccnc4)(c4ccc(Cl)cc4Cl)O3)cc2)CC1 | inconclusive [inhibitor, partial curve] | 
Cc1cc([N+](=O)[O-])c2ccccc2[n+]1[O-] | active: 10 µM | 
O=C1NC(=O)N(c2ccc(Cl)cc2)C(=O)/C1=C\c1ccc(Sc2nc3ccccc3[nH]2)o1 |  | inactive: -45%
O=C1NC(=O)C(=Cc2ccc(-c3cc(Cl)ccc3[N+](=O)[O-])o2)C(=O)N1 | inconclusive [inhibitor, single point] | 
c1ccc(CCN2CCC(N3CCN(c4ccccc4)CC3)CC2)cc1 |  | inactive: -8.56% [at 46.1 µM]

Structure (SMILES) | Potency | activity change, negative = inhibition
O=c1c2ccccc2nc(Cc2cccc([N+](=O)[O-])c2)n1-c1ccc(O)cc1 | inconclusive [activator, single point] | 
Oc1cc2c(cc1CN1CCN(c3ccccc3)CC1)CCC2 | inconclusive [inhibitor, partial curve, poor fit] | 
Cc1cccc(C)c1Oc1nc(-c2ccccc2)ncc1S(=O)(=O)c1ccccc1 | inconclusive [inhibitor, single point] | 
O=C(N/N=C/c1c(O)n(Cc2ccc(F)cc2)c(=O)[nH]c1=O)c1ccccc1O |  | inactive: 6.16% [at 46.1 µM]
C=CCn1c(O)c(/C=C2\C=Nc3ccccc32)c(=O)[nH]c1=O |  | inactive: 6.5%
CCc1[nH]nc2c1C(c1cccnc1)C(C#N)=C(N)O2 (centres undefined) | inconclusive [inhibitor, single point] | 
Cc1ccc(C(C)C)c(OCCn2c(=O)oc3ccccc32)c1 | inconclusive [inhibitor, single point] | 
Cc1nn(Cc2ccccc2)c(C)c1C=C1C(=O)NC(=S)NC1=O | inconclusive [inhibitor, single point] | 
OCCNc1c2c(nc3ccccc13)CCCC2 |  | inactive: 4.83% [at 46.1 µM]
COc1ccc(-n2c(-c3ccc(C)cc3)nc3ccccc3c2=O)cc1 | inconclusive [activator, partial curve] | 
O=C(Oc1ccc([N+](=O)[O-])cc1)N1CCC(N2CCCCC2)CC1 |  | inactive: 8.01%
CC(=O)c1ccc(OC(NC(=O)Cc2ccccc2)C(Cl)(Cl)Cl)cc1 (centres undefined) | inconclusive [inhibitor, single point] | 
O=c1[nH]c(=O)n(-c2cccc3ccccc23)c(O)c1/C=N/N1CCCCCC1 |  | inactive: -20.9%
CN(C)c1ccc(/C=C2/C(=O)NC(=O)N(CCc3ccc(F)cc3)C2=O)cc1 |  | inactive: -23.7%
CCC1(CC)C(=O)NC(=NCCc2c[nH]c3ccccc23)NC1=O | inconclusive [inhibitor, partial curve, poor fit] | 
Cn1c(O)c(C(=O)c2ccccc2)c(=O)n(C)c1=O |  | inactive: -9.9% [at 46.1 µM]
O=C(N/N=C/c1c(O)n(CCc2ccccc2)c(=O)[nH]c1=O)c1ccncc1 |  | inactive: 4.12% [at 46.1 µM]
CCOc1ccc(N=Cc2c(O)n(Cc3ccccc3)c(=S)[nH]c2=O)cc1 | inconclusive [activator, single point] | 
O=C(c1ccc(Cl)cc1)C1CCCN(Cc2ccc3nonc3c2)C1 (centres undefined) | inconclusive [activator, partial curve] | 
CCC(=NCc1ccc2c(c1)OCO2)c1c(O)n(C2CCCCC2)c(=O)[nH]c1=O | inconclusive [inhibitor, single point] | 
CN(CC1COc2ccccc2O1)c1nc(-c2cccnc2)nc2ccccc12 (centres undefined) | inconclusive [inhibitor, single point] | 
COc1cc(-n2c(=S)[nH]c3ccccc3c2=O)c(Cl)cc1Cl | inconclusive [inhibitor, single point] | 
